Laboratory results as given in PMC4633242.
Results are given in words; binding and its absence hold for the method and conditions named. For some assays here: Binding seen in cells or lysates may run through a third protein. Some binding calls cover weakened binding; strength is not graded here. For some assays here: Where a sequence is shown, tags or fusion partners need not be part of it. One block for each molecule: values may come before it.

Protein sequences, listed by entry. Tags and fused reporters are not part of them. Lines headed by an entry give the natural chain unless they say otherwise; changes in a name come on top. Residues count along the entry.
UniProt P14416: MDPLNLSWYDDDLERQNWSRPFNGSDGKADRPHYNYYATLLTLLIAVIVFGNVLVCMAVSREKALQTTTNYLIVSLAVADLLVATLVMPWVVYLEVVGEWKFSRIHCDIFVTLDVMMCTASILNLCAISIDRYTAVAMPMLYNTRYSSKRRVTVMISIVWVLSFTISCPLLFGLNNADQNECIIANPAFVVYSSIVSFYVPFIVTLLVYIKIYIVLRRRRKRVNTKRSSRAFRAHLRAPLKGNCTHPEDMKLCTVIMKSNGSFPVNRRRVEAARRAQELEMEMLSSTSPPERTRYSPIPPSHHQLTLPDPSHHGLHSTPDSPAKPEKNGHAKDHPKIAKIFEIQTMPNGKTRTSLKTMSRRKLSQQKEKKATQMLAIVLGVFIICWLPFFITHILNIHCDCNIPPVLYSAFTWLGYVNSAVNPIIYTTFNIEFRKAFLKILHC
second intracellular loop of the D2R (IL2, amino acids 131-151), yeast two-hybrid bait: residues 131-151 of P14416
UniProt Q9ULC8: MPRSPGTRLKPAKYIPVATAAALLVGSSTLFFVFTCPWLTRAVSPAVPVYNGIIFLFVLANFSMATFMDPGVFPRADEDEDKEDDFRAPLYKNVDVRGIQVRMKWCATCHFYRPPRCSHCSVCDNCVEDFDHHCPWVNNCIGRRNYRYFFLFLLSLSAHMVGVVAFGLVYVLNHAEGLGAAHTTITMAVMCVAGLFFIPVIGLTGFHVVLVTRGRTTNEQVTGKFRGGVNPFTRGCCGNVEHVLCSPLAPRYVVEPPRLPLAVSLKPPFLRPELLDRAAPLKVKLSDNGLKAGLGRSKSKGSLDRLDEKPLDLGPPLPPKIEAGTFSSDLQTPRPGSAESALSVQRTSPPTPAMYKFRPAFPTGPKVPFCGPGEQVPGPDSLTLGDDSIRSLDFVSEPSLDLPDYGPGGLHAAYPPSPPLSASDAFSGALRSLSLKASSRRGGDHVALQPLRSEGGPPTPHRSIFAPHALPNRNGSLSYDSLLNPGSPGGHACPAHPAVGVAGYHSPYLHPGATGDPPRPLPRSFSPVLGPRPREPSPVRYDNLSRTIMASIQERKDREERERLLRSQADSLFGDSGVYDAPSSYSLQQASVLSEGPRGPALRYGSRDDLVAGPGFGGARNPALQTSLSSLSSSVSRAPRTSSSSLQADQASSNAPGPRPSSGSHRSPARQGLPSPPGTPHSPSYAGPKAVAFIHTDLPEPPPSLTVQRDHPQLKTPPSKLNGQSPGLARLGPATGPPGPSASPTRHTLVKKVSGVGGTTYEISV

Key:
[1] = target: FLAG-tagged D2L (HEK-D2L stable cells) (human) (UniProt P14416); assay: co-IP; FLAG-D2L immunoprecipitated with rabbit anti-D2R or mouse anti-FLAG on Protein G magnetic beads from lysates of HEK-D2L cells transiently expressing a myc-tagged PAT; 100 mM sodium phosphate pH 7.5, 150 mM NaCl, 1% Nonidet P-40; blots with anti-myc or anti-zDHHC8
[2] = target: second intracellular loop of the D2R (IL2, amino acids 131-151), yeast two-hybrid bait (human) (UniProt P14416); assay: two-hybrid; directed yeast two-hybrid; receptor loops as baits in pAS2-1, zinc finger domains as preys in pACT2, S. cerevisiae MaV103; β-galactosidase filter lift
[3] = target: T1, second intracellular loop of the D5R (IL2, amino acids 137-158), yeast two-hybrid bait (UniProt P21918); assay: as above
T1 sequence: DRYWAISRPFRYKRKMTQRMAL

[4] = target: T2, second intracellular loop of the D4R (IL2, amino acids 132-151), yeast two-hybrid bait (UniProt P21917); assay: as above
T2 sequence: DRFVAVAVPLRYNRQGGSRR

[5] = target: HA-tagged D2L (NG108-15 stable cells) (UniProt P14416); assay: co-IP; HA-tagged D2L immunoprecipitated from stably transfected NG108-15 cells; mock with control IgG; blots with anti-zDHHC4 or anti-SERZβ

Molecule: myc-tagged zDHHC8 (from UniProt Q9ULC8 1-765) (enzyme)
- binding [1]: binds

B1: myc-tagged GODZ (zDHHC3) (enzyme, UniProt Q9NYG2 1-299)
chain: MMLIPTHHFRNIERKPEYLQPEKCVPPPYPGPVGTMWFIRDGCGIACAIVTWFLVLYAEFVVLFVMLIPSRDYVYSIINGIVFNLLAFLALASHCRAMLTDPGAVPKGNATKEFIESLQLKPGQVVYKCPKCCSIKPDRAHHCSVCKRCIRKMDHHCPWVNNCVGENNQKYFVLFTMYIALISLHALIMVGFHFLHCFEEDWTKCSSFSPPTTVILLILLCFEGLLFLIFTSVMFGTQVHSICTDETGIEQLKKEERRWAKKTKWMNMKAVFGHPFSLGWASPFATPDQGKADPYQYVV
- binding [1]: binds

B3: myc-tagged zDHHC4 (enzyme, UniProt Q9NPG8 1-344)
chain: MDFLVLFLFYLASVLMGLVLICVCSKTHSLKGLARGGAQIFSCIIPECLQRAVHGLLHYLFHTRNHTFIVLHLVLQGMVYTEYTWEVFGYCQELELSLHYLLLPYLLLGVNLFFFTLTCGTNPGIITKANELLFLHVYEFDEVMFPKNVRCSTCDLRKPARSKHCSVCNWCVHRFDHHCVWVNNCIGAWNIRYFLIYVLTLTASAATVAIVSTTFLVHLVVMSDLYQETYIDDLGHLHVMDTVFLIQYLFLTFPRIVFMLGFVVVLSFLLGGYLLFVLYLAATNQTTNEWYRGDWAWCQRCPLVAWPPSAEPQVHRNIHSHGLRSNLQEIFLPAFPCHERKKQE
- binding [1]: binds

B5: zDHHC4 in NG108-15 cells (detected with anti-zDHHC4 antibody) (enzyme, UniProt Q9D6H5 1-343)
chain: MDFLVLFLFYLAFLLICVVLICIFTKSQRLKAVVLGGAQVCSRVIPQCLQRAVQTLLHQLFHTRHPTFIVLHLLLQGLVYAEYTCEVFGYCRELEFSLPYLLLPYVLLSVNLVFFTLTCAANPGTITKANESFLLQVYKFDDVMFPKNSRCPTCDLRKPARSKHCRLCDRCVHRFDHHCVWVNNCIGAWNTRYFLIYLLTLTASAATIATVTAAFLLRLVTVSDLYQETYLDDVGHFQAVDTVFLIQHLFLAFPRIVFLLGFVIVLSMLLAGYLCFALYLAATNQTTNEWYKGDWAWCQRWPLVAWSPSAEPRIHQNIHSHGFRSNLREIFLPATPSYKKKEK
- binding [5]: binds

Other lines, results leading:

- binding [2]: binds
- binding [3]: no binding
- binding [4]: binds
Molecule: zinc finger domain of zDHHC8 (amino acids 67-148), yeast two-hybrid prey (from UniProt Q9ULC8 67-148) (domain or fragment)

- binding [2]: binds
- binding [3]: no binding
- binding [4]: binds
B2: zinc finger domain of zDHHC4 (amino acids 122-192), yeast two-hybrid prey (domain or fragment, UniProt Q9NPG8 122-192)
chain: NPGIITKANELLFLHVYEFDEVMFPKNVRCSTCDLRKPARSKHCSVCNWCVHRFDHHCVWVNNCIGAWNIR

- binding [5]: no binding
B4: zDHHC7 (SERZβ) in NG108-15 cells (probed with anti-SERZβ antibody) (enzyme, UniProt Q91WU6 1-308)
chain: MQPSGHRLRDIEHHPLLTDNDNYDSASSSSSETDMADRVWFIRDGCGMVCAVMTWLLVVYADFVVTFVMLLPSKDFWYSVVNGVLFNCLAVLALSSHLRTMLTDPGAVPKGNATKEYMESLQLKPGEVIYKCPKCCCIKPERAHHCSICKRCIRKMDHHCPWVNNCVGEKNQRFFVLFTMYIALSSVHALILCGLQFISCVRGQWTECSDFSPPITVILLVFLCLEGLLFFTFTAVMFGTQIHSICNDETEIERLKSEKPTWERRLRWEGMKSVFGGPPSLLWMNPFVGFRLRRLQMRTRKGGPEFSV
